Experimental data published in PubChem BioAssay AID1347070 (National Center for Advancing Translational Sciences (NCATS), 2019).
The whole screen tested about 94,000 compounds, of which about 20 (0.02%) were called active. The shares of active, inactive and inconclusive entries below differ from those in the screen. The call rests on the fitted dose curve; in most records, active means well fitted activation curve with a large enough effect; inconclusive means small, poorly fitted or top-dose-only effect; inactive means flat fitted curve, though single readings scatter. No potency is given beside an inconclusive call; the fits are too rough.

Test: qHTS of alpha-syn Inhibitors: NCGC Sytravon Library Screen; on growth rescue (activation): 0% is about no effect
Settings: S. cerevisiae alpha-synuclein toxicity rescue, BacTiter-Glo growth, 24 h; growth rescue (activation): at 46.1 µM (top of the series)
Excerpt: The goal of this project is to identify new chemical probes capable of reversing the toxicity associated with the Parkinson disease-related protein, alpha-synuclein. Compounds will be selected on their ability to restore growth in yeast cells expressing toxic levels of alpha-synuclein. These compounds will provide a complementary approach to deciphering the tangled mechanisms of toxicity and protection that we have uncovered through genome-wide genetic screens and are beginning to uncover in a large-scale proteomics analysis with mass spectroscopy. To this end, a miniaturized assay was developed to be screened against the Molecular Libraries Small Molecule Repository (MLSMR) to discover alpha-synuclein inhibitors. […] The phenotype of interest will be that of an Activator and this screen is run against the NCGC Sytravon Library collection. NIH Chemical Genomics Center [NCGC] NIH Molecular Libraries Probe Centers Network [MLPCN] MLPCN Grant: NS060957 Assay Submitter (PI): Susan Lindquist, Whitehead Institute/MIT
Dispense 2.5 microL yeast galactose medium per 1536-well plate, pin compound, dispense 2.5 microL alpha-synuclein expressing yeast in galactose medium at OD600=0.02 (pregrown in raffinose medium to mid-log phase) per well, incubate for 24 hr at 30 deg C, and cell growth will be measured using 5 microL of Bactiter/Glo reagent to entire plate and read using Luminescence Protocol in ViewLux.
Potency means the concentration at half of the fitted maximal effect; tags describe the fitted curve by direction and shape.

| SMILES | growth rescue (activation) | Potency |
| --- | --- | --- |
| O=C(O)c1cc2ccccc2c2c1C(=O)c1ccccc1-2 | inconclusive: 51.6% [activator] |  |
| COc1ccc(N(C(=O)c2snc(C(N)=O)c2N)C(C(=O)NC2CCCC2)c2ccc(C)o2)c(OC)c1 (stereo not given) |  | inactive |
| N=c1c(C(=O)NC2CCCCC2)cc2c(=O)n3ccccc3nc2n1CC1CCCO1 (stereo not given) | inconclusive: 49% [activator] |  |
| Cc1ccc(NS(=O)(=O)c2ccc(-c3cc(C)no3)cc2)c(Br)c1 | inconclusive: 32.3% [activator] |  |
| CCOC(=O)N1CCc2c(sc3c2c(=O)n(CCc2ccccc2)c(=O)n3Cc2cc(C)ccc2C)C1 |  | inactive |
| CCCc1nc2ccc(NC(C)=O)cc2c(=O)n1Cc1ccc(Cl)cc1 | inconclusive: 34.8% [activator] |  |
| Cc1cc2nn(-c3ccccc3)nc2cc1NC(=O)Cc1ccc(Cl)cc1 |  | inconclusive [activator, single point] |
| CC1CCN(C(=O)Cn2cc(SCC(=O)NCc3ccc(F)cc3)c3ccccc32)CC1 |  | inactive |
| CCOC(=O)c1cc(-c2ccccc2)n(CCCC(=O)Nc2ccc(C)c(Cl)c2)c1C |  | inactive |
| CCOC(=O)c1scc(-c2ccccc2)c1S(=O)(=O)Nc1ccccc1OC |  | inactive |
| Cc1csc2nc(-c3ccc(NS(=O)(=O)c4cc(F)ccc4F)cc3)cn12 |  | inconclusive [activator, single point] |
| COc1ccc2c(c1)c1c(c(=O)n(Cc3ccccc3)c(=O)n1Cc1cccc(Cl)c1)n2C |  | inactive |
| CCn1cc(C(=O)NCCCOC)c(=O)c2cc(S(=O)(=O)N3CCc4ccccc4C3)ccc21 |  | inactive |
| CCCSc1nc(-c2ccccc2)[nH]c1S(=O)(=O)c1ccc(C)cc1 |  | inactive |
| Cc1ccc(CNC(=O)CCCn2c(=O)c3ccccc3n(CC(=O)Nc3ccc(C)cc3)c2=O)cc1 |  | inconclusive [activator, single point] |
| CCOc1ccc(N2CC(c3nc4ccccc4n3CCOc3ccccc3OC)CC2=O)cc1 (stereo not given) |  | inconclusive [activator, single point] |
| O=C(CSc1nccn1-c1cccc(Cl)c1)Nc1ccc2c(c1)OCO2 |  | inconclusive [activator, single point] |
| O=C(Cn1ncc2c1-c1ccccc1OC2)N1CCN(c2ccccc2F)CC1 |  | inconclusive [activator, single point] |
| O=C(CSCc1ccccc1Cl)N1CCN(c2ccc(F)cc2)CC1 |  | inconclusive [activator, single point] |
| Cc1cccc(NC(=O)c2ccc(N(Cc3ccccc3)S(C)(=O)=O)cc2)c1 |  | inactive |
| CCN(CCCNC(=O)c1cc2c(=O)n(C)c3ccccc3c2s1)Cc1ccccc1 |  | inconclusive [activator, single point] |
| COC(=O)c1scc(-c2ccc(C)cc2)c1S(=O)(=O)Nc1cc(OC)c(OC)c(OC)c1 |  | inactive |
| O=C(CCC1N=C2c3ccccc3N=C(SCc3cccc(F)c3)N2C1=O)NCc1cccs1 (stereo not given) |  | inconclusive [activator, single point] |
| CC(=O)c1ccc(NC(=S)Nc2ccc3cn[nH]c3c2)cc1 | inconclusive: 233% [activator] |  |

| SMILES | growth rescue (activation) | Potency |
| --- | --- | --- |
| CCOC(=O)Cn1c(=O)n(-c2ccccc2OC)c2nc(-c3cccc(F)c3)nc(C(N)=O)c21 |  | inconclusive [activator, single point] |
| Cc1ccc(-c2noc(CNC(=O)c3ccc(Br)o3)n2)cc1 |  | inactive |
| Oc1c(CN2CCCCC2)cc(Br)c2cccnc12 | inconclusive: 428% [activator] |  |
| COc1ccccc1NC(=O)C(=O)NCC(c1ccc2c(c1)OCO2)N1CCOCC1 (stereo not given) |  | inactive |
| Cc1ccc(C)c(CN2CCCN(Cc3ccc(F)cc3)S2(=O)=O)c1 |  | inactive |
| Cc1ccc(C2c3[nH]c4ccccc4c3CCN2C(=O)CSc2ccccc2)cc1 (stereo not given) |  | active: 14.1 µM |
| Cc1cccc(NC(=O)C(Cc2ccccc2)N2Cc3ccccc3C2=O)c1C (stereo not given) |  | inconclusive [activator, single point] |
| CCc1ccc(CNC(=O)c2ccc(-n3c(C)cc4c3CCC(C)C4)cc2)cc1 (stereo not given) |  | inactive |
| Cc1ccc(NS(=O)(=O)c2ccc(-c3cc(C)no3)cc2)c(C)c1 |  | inconclusive [activator, single point] |
| NC(=O)CSc1nnc(-c2cnccn2)n1Cc1ccco1 |  | inactive |
| COc1cc(C2c3c(-c4ccccc4O)n[nH]c3C(=O)N2Cc2ccncc2)ccc1O (stereo not given) |  | inconclusive [activator, single point] |
| O=C(Cc1ccccc1)N(Cc1cccnc1)c1nc2ccc(F)cc2s1 |  | inconclusive [activator, partial curve] |
| NC(=S)Nc1cc(Cl)ccc1Cl | inconclusive: 34.7% [activator] |  |
| CC1CCN(C(=O)Cn2cc(SCc3cccc(F)c3)c3ccccc32)CC1 |  | inconclusive [activator, partial curve] |
| CC1CCN(C(=O)Cn2cc(SCc3ccccc3)c3ccccc32)CC1 |  | inconclusive [activator, single point] |
| O=C(CSc1nccn1-c1cccc(Cl)c1)Nc1cccc(C(F)(F)F)c1 |  | inconclusive [activator, single point] |
| CCCN1C(=O)C(O)(CC(=O)c2ccc(CC)cc2)c2cc(Br)ccc21 (stereo not given) |  | inconclusive [activator, single point] |
| CN(c1nc2ccccc2[nH]c1=O)C1CCCCC1 |  | inactive |
| COc1ccc(N2C(=O)C(C)(C)C2c2c(O)ccc3ccccc23)cc1 (stereo not given) | inconclusive: 39.8% [activator] |  |
| CCc1ccc(CNC(=O)CCCn2ccc3cc(S(=O)(=O)N4CCCC4)ccc32)cc1 |  | inactive |
| Clc1ccccc1OCCSc1nnc(-c2cccs2)o1 | inconclusive: 32.3% [activator] |  |
| Cc1cc(C)c(S(=O)(=O)NCCS(=O)(=O)N2CCN(c3ccccc3)CC2)c(C)c1 |  | inconclusive [activator, single point] |
| CCOC(=O)c1cc(-c2ccc(OC)cc2)n(CCC(=O)NCCc2ccccc2)c1C |  | inconclusive [activator, single point] |
| Cn1c(C(=O)NCCN2CCCCCC2)cc2c(=O)n(C)c3ccccc3c21 | inconclusive: 92.8% [activator] |  |

| SMILES | growth rescue (activation) | Potency |
| --- | --- | --- |
| Cc1ccsc1CCN1C(=O)N(c2ccccc2)C(=O)C1CC(=O)Nc1ccc(Cl)cc1 (stereo not given) |  | inconclusive [activator, single point] |
| Cc1ccc(C(C)C)c(OCc2ccc(C(=O)N/N=C/c3cccc(O)c3O)cc2)c1 | inconclusive: 245% [activator] |  |
| Cc1nc(-c2ccc(S(=O)(=O)Nc3cc(Cl)ccc3C)cc2)co1 |  | inconclusive [activator, single point] |
| CC(C)c1ccc(NC(=O)CSC2=Nc3ccccc3C3=NC(CCC(=O)NC4CCCCC4)C(=O)N23)cc1 (stereo not given) |  | inconclusive [activator, single point] |
| CCn1ccc2cc(S(=O)(=O)N3CCCN(C(=O)Nc4ccccc4F)CC3)ccc21 |  | inconclusive [activator, single point] |
| N#Cc1c[nH]n2c(NC3CCCCC3)c(-c3ccc(F)cc3)nc12 |  | inactive |
| COc1ccc(-c2nc3nc(C)cc(C)n3c2Nc2c(C)cccc2C)cc1 |  | inconclusive [activator, single point] |
| Cc1nc2cc(-c3ccccc3)nn2c(C)c1CCC(=O)N1CCN(c2ccc(F)cc2)CC1 |  | inconclusive [activator, single point] |
| CCc1ccccc1OCC(=O)Nc1nnc(C2CC2)s1 |  | inactive |
| CC(=O)c1cccc(NC(=O)Cn2c(=O)c(CNc3ccc(C)cc3)cc3cc4c(cc32)OCCO4)c1 |  | inactive |
| CCS(=O)(=O)c1ccccc1C(=O)N(Cc1cccnc1)c1nc2cc(C)c(C)cc2s1 |  | inconclusive [activator, single point] |
| CCCCN(Cc1ccccc1)S(=O)(=O)c1ccc2c(c1)CC(C)N2C(=O)CC (stereo not given) |  | inactive |
| CC(C)(C)c1ccc(CSC2=Nc3ccccc3C3=NC(CC(=O)NCc4cccs4)C(=O)N23)cc1 (stereo not given) |  | inconclusive [activator, single point] |
| CCC(C)NC(=O)c1cc2cc(S(=O)(=O)N3CCCCC3)ccc2n1C (stereo not given) |  | inactive |
| O=C1CCCc2cc(S(=O)(=O)NCC3CCC(C(=O)Nc4ccc(Cl)cc4)CC3)ccc2N1 (stereo not given) |  | inactive |
| Cc1ccc(Cl)cc1N1CCN(C(=O)Cn2cnc3onc(-c4ccc(F)cc4)c3c2=O)CC1 |  | inconclusive [activator, single point] |
| CC(C)CCN1CCN(Cc2ccc(C(F)(F)F)cc2)CC1CCO (stereo not given) |  | inactive |
| O=C(NCc1ccc(Cl)cc1)c1cc2c(s1)-c1ccccc1SC2 |  | inconclusive [activator, partial curve] |
| Cc1nc(N2CCOCC2)c2c(C(=O)N3CCN(c4ccccc4F)CC3)c(C)oc2n1 |  | inconclusive [activator, single point] |
| CCCN(CCC)CCCNC(=O)c1cc2c(=O)n(C)c3ccccc3c2s1 |  | inconclusive [activator, single point] |
| O=C(Cn1cc(SCc2cccc(F)c2)c2ccccc21)N1CCCC1 |  | inconclusive [activator, single point] |
| O=C(Nc1ccc(C(F)(F)F)cc1)c1cc(S(=O)(=O)NC2CCCCCC2)ccc1F |  | inconclusive [activator, single point] |
